Test results: PubChem BioAssay AID1030 (National Center for Advancing Translational Sciences (NCATS), 2008)
About 16,000 (7.3%) of roughly 220,000 compounds were called active. The inconclusive results got no clear call from the source; some entries with a clear call stand among them for comparison. Calls come from the whole dose curve; as a rule, active = well fitted inhibition curve with a large enough effect (not every such curve was filed as active); inconclusive = small, poorly fitted or top-dose-only effect, or another doubt; inactive = no such curve, though single readings can be large or run the other way. Potencies of inconclusive entries are doubtful fits and often do not repeat.

Molecular target: Aldehyde dehydrogenase 1A1 (Homo sapiens) (UniProt P00352)
Chain of UniProt P00352 (P00352 whole entry, looked up): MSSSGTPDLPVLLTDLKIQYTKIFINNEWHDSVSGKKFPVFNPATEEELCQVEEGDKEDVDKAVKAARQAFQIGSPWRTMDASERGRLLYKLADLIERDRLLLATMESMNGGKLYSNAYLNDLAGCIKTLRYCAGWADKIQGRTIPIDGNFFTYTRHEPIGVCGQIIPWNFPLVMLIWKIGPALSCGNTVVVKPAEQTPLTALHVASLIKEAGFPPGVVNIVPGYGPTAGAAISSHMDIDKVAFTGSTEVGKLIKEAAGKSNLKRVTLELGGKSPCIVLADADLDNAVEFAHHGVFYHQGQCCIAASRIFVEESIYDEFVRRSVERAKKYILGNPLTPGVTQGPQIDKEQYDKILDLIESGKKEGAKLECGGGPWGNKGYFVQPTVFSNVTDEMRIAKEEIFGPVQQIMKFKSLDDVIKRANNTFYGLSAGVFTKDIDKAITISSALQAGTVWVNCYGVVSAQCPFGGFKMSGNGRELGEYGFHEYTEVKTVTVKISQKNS
Test: qHTS Assay for Inhibitors of Aldehyde Dehydrogenase 1 (ALDH1A1);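 for activity, negative = inhibition: plate controls were no enzyme wells and a reference inhibitor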
Settings: Purified ALDH1A1, NADH fluorescence, propionaldehyde substrate; series mostly up to 75.3 µM; activity, negative = inhibition: at the top concentration
Potency is the fitted concentration of half-maximal effect; tags give direction and shape of the fitted curve.

Potency, active:
CCN(CC)c1ccc(C(=S)NCc2ccccc2)cc1 10 µM
COc1ccc(NC(=S)NC(NC(=O)c2ccccc2Cl)C(Cl)(Cl)Cl)c([N+](=O)[O-])c1 (configuration not stated) 8.91 µM
COc1cc(C(c2sc3nc(C)nn3c2O)N2CC(C)CC(C)C2)cc(OC)c1OC (configuration not stated) 14.1 µM
O=C1Oc2ccccc2C(=O)/C1=C/N1CCN(c2ccccc2F)CC1 17.8 µM
O=C(CCCSc1nc2ccccc2s1)NCc1ccc2c(c1)OCO2 3.55 µM
O=C(c1cc(-c2ccco2)on1)N1CCN(c2ccccc2)CC1 14.1 µM
NC(=S)N=Nc1c(O)n(Cc2ccc(F)cc2)c2ccccc12 1.41 µM
C#CCSC1=C(C#N)C(c2cccs2)C(C(=O)OCC)=C(C)N1 (configuration not stated) 25.1 µM
Cc1ccc2cccnc2c1NC(=S)NC(=O)c1ccccc1 28.2 µM
CCOC(=O)c1cnc(-c2ccccc2)nc1Oc1ccc(OC)cc1 11.2 µM
CC(=O)c1ccc2c(c1)C1C=CCC1C(c1ccncc1)N2 (configuration not stated) 20 µM
O=C(CNC(=S)NC(=O)c1ccccc1Br)c1ccccc1 17.8 µM
COc1cccc(-c2cc(C(=O)O)no2)c1 0.562 µM
O=C(Cn1nc(-c2ccccc2Cl)ccc1=O)Nc1ccc(Br)cc1 7.94 µM
CC1CCN(S(=O)(=O)c2cc([N+](=O)[O-])ccc2Cl)CC1 3.55 µM
CCN1CCCc2cc(CN(CCN3CCOCC3)C(=S)Nc3ccccc3C)ccc21 22.4 µM

Potency, inconclusive:
COCCOC(=O)c1c(C)nc(SCC(=O)Nc2ccc(C)cc2)c(C#N)c1-c1ccco1 22.4 µM [inhibitor, partial curve]
CCC(OCC(O)CN1CCN(CCN2C(=O)c3cccc4cccc(c34)C2=O)CC1)c1ccccc1 (configuration not stated) 22.4 µM [inhibitor, partial curve]
COc1cccc(OCCCCCN2CCOCC2)c1 39.8 µM [inhibitor, single point]
CCN(Cc1ccccc1)S(=O)(=O)c1ccc(S(=O)(=O)N(Cc2cccc(OC)c2)CC2CCCO2)cc1 (configuration not stated) 3.55 µM [inhibitor, full curve]
Cc1onc(-c2ccccc2Cl)c1C(=O)Nc1ccc(-n2nncc2C(C)(C)C)cc1 31.6 µM [inhibitor, single point]
C=CCn1c(SCC(=O)OCC)nc2cc(C(=O)NCc3ccco3)ccc2c1=O 7.94 µM [inhibitor, partial curve]
Cc1ccc(N=c2c([N+](=O)[O-])nn(-c3ccc4c(c3)OCCO4)n2O)c(Cl)c1 31.6 µM [inhibitor, single point]
CCOc1ccc(Cc2n[nH]c(=S)n2Cc2ccccc2)cc1 25.1 µM [inhibitor, single point]
CCC1(CC)NC(=O)N(CC(=O)OCC(=O)Nc2ccccc2[N+](=O)[O-])C1=O 39.8 µM [inhibitor, single point]
CCOC(=O)C(CC)Sc1ccc2nnc(CCNS(=O)(=O)c3ccccc3)n2n1 (configuration not stated) 39.8 µM [inhibitor, single point]
CC1(C)CC(=O)C(C=NCCN2CCN(C(=O)CC3CCCC3)CC2)=C(O)C1 39.8 µM [inhibitor, single point]
Cc1ccc(N2C(=O)c3ccccc3NC2C(C)Cc2ccc3c(c2)OCO3)cc1 (configuration not stated) 28.2 µM [inhibitor, partial curve]
CCn1cc(/C=N\NC(=O)c2csc3ccccc23)c(C)n1 39.8 µM [inhibitor, single point]
COc1ccc(-c2nc3ccccn3c2C=O)cc1 28.2 µM [inhibitor, single point]
O=C(COC(=O)c1cccc([N+](=O)[O-])c1)NCC1CCCO1 (configuration not stated) 7.94 µM [inhibitor, partial curve, poor fit]
C=CC[C@H]1CC(Cc2ccccc2)=C[C@H](CC=C)N1 39.8 µM [inhibitor, single point]
CC/C(C)=C1\SC(N2CCN(C(C)=O)CC2)=NC1=O 25.1 µM [inhibitor, partial curve]
CC(C)(C)C(=O)N1N=C(c2cccc(NS(C)(=O)=O)c2)CC1c1cccs1 (configuration not stated) 39.8 µM [inhibitor, single point]
CCc1cc(/C(Cc2cscn2)=N\O)c(O)cc1O 17.8 µM [inhibitor, partial curve]
CC1(C)CC(=O)C(C(C2=C(O)CC(C)(C)CC2=O)c2ccc(O)c([N+](=O)[O-])c2)=C(O)C1 22.4 µM [inhibitor, partial curve]
CC(C)(C)C(=O)CSc1ncnc2sc3c(c12)CCC3 31.6 µM [inhibitor, single point]
O=c1c(-c2ccccc2)nc2cnc(Oc3cccc(Cl)c3)nc2n1C1CC1 25.1 µM [inhibitor, single point]
COC(=O)c1cc(OC)c(OC)cc1NC(=O)c1c(-c2ccccc2)noc1C 31.6 µM [inhibitor, partial curve]
O=C1NCCCc2c1no[n+]2[O-] 25.1 µM [inhibitor, partial curve]
Cc1c(CCOC(=O)C23CC4CC(CC(C4)C2)C3)sc[n+]1Cc1ccccc1 31.6 µM [inhibitor, single point]
CCOc1cc(C2C(C#N)=C(N)OC(C)=C2C(C)=O)c(Br)c(Br)c1OC(C)C (configuration not stated) 39.8 µM [inhibitor, single point]
CCOC(=O)CNC(=S)n1ncnc1N 28.2 µM [inhibitor, single point]
O=c1c2ccccc2nc2c3ccccc3c(NCc3ccco3)nn12 23.8 µM [inhibitor, partial curve]
Cc1cccc(C)c1OCCOCCN1CCN(C)CC1 39.8 µM [inhibitor, single point]
CCn1c(COc2ccccc2)nnc1SCC(=O)C(C)(C)C 39.8 µM [inhibitor, single point]
COc1ccc(N(CC(=O)N/N=C/c2ccc3c(c2)OCO3)S(=O)(=O)c2ccc(NC(C)=O)cc2)cc1 20 µM [inhibitor, partial curve]
Cc1cc(=O)oc(C)c1C(=O)OCC(=O)c1ccc(Br)cc1 22.4 µM [inhibitor, single point]
CC(C)(C)c1ccc(C2(C)NC(=O)N(CC(=O)NCc3cccs3)C2=O)cc1 (configuration not stated) 22.4 µM [inhibitor, single point]
Cc1ccc(C(=O)CC(SCC(=O)O)c2ccc([N+](=O)[O-])cc2)cc1 (configuration not stated) 39.8 µM [inhibitor, single point]
Cc1nc2cnc(N3CCOCC3)nc2n(CCc2ccccc2)c1=O 28.2 µM [inhibitor, partial curve]
Cc1ccccc1C(=O)c1c[nH]c(C(=O)N2CCN(c3ccccc3F)CC2)c1 22.4 µM [inhibitor, partial curve]
CC(C)(C)OC(=O)N1CCC[C@H]1C(=O)NCc1ccc(Cl)cc1Cl 39.8 µM [inhibitor, single point]
O=C(CSc1ccc(-c2nc3ccccc3[nH]2)cn1)Nc1ccc(S(=O)(=O)N2CCCC2)cc1 28.2 µM [inhibitor, partial curve]
CCC(C(=O)OCC(=O)Nc1cccc(S(=O)(=O)NC2=NCCCCC2)c1)c1ccccc1 (configuration not stated) 12.6 µM [inhibitor, partial curve, poor fit]

activity, negative = inhibition, inactive:
CC1=NN(C(=O)COc2ccccc2)C(O)(c2cccnc2)C1 (configuration not stated) 4.83%
COc1ccc(S(=O)(=O)N2CCOCC2)cc1C(C)C -2.02%
CCOC(=O)C1CCCN(C(=O)CSc2ccc(NC(C)=O)cc2)C1 (configuration not stated) -13.3%
Cc1ccc2[nH]c3nc(CCCn4ccnc4-c4ccccc4)nnc3c2c1 -11.3% [at 13.5 µM]
Cn1c(=O)c(-c2ccc(Cl)cc2)nc2cnc(Nc3ccccc3)nc21 20.3%
Cc1c(N=C2SCC(=O)N2/N=C/c2ccccc2)c(=O)n(-c2ccccc2)n1C 11.2%
Cc1ccc(OCCCn2c(=O)oc3ccccc32)cc1 4.85%
CCc1n[nH]c(=S)n1/N=C/c1c(C)nn(-c2ccccc2)c1Cl 1.57%
COc1cc(OC)cc(C(=O)N[C@H](C(=O)OCC(=O)Nc2ccc(F)c(F)c2)C(C)C)c1 -13.1%
Cn1c(-c2ccccc2)c(O)c(=O)c2ccccc21 -6.31% [at 13.5 µM]
Cc1nc(-c2ccc(Cl)cc2)sc1C(=O)O 9.49%
CCc1nnc(NS(=O)(=O)c2ccc(NC(=S)NC(=O)/C=C/c3ccc(C(C)C)cc3)cc2)s1 -72.8%
CC(=O)c1cnc2c(-c3ccc(Cl)cc3)cnn2c1C -2.44%
O=C(c1ccc(CNc2c(N3CCCC3)c(=O)c2=O)cc1)N1CCc2ccccc2C1 10.3%
COC(=O)c1c(C)[nH]c(C(=O)C(C)Sc2nnc(-c3cc(OC)c(OC)c(OC)c3)o2)c1C (configuration not stated) 5.9%
N[C@@]1(C(=O)O)CN[C@@H](C(=O)O)C1 15%
O=C(NCC(=O)N1CC(O)CC1C(=O)N1CCCC1C(=O)OCc1ccccc1)OCc1ccccc1 (configuration not stated) 5.55%
